Here are results for 63 sequences from the BET-seq Pho4 binding data (Le et al. 2018).

Some of the results follow. Values were computed here from the reads of four pooled replicates and scatter widely.

The experiment has as its target T1, Pho4 (S. cerevisiae) (UniProt P07270).
T1 sequence: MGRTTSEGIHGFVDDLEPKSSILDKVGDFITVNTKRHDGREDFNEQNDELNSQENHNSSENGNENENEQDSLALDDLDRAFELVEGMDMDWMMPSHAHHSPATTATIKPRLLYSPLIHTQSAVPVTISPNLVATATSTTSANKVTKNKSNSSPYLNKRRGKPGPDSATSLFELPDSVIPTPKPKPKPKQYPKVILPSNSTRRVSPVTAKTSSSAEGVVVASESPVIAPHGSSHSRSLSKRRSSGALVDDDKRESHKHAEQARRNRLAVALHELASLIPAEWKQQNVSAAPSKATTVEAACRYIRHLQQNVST
Nature of the experiment: relative binding free energy (BET-seq); higher = weaker binding. Particulars: reference: library average.
GGGAGCACGTGGGAGC: the “relative binding free energy” value is -0.09 kcal/mol. For AAATTCACGTGAGGTA, the “relative binding free energy” value stood at 0.35 kcal/mol. CTTATCACGTGTTGGG: the “relative binding free energy” value turned out to be 0.14 kcal/mol.

Turning to TTAAACACGTGATTAG, the “relative binding free energy” value is 0.08 kcal/mol. As for GTGGCCACGTGTGGCA, the “relative binding free energy” value is -0.03 kcal/mol. Take TCATGCACGTGGTTGT: the “relative binding free energy” value is -0.14 kcal/mol. As for AGTTTCACGTGTCGGG, the “relative binding free energy” value was determined as 0.21 kcal/mol. As for GGTTGCACGTGTTGCA, the “relative binding free energy” value came to 0.16 kcal/mol. With AGTGGCACGTGTGACG, the “relative binding free energy” value was -0.07 kcal/mol. Next, CTGGGCACGTGGGTTA: -0.1 kcal/mol. Consider AATTGCACGTGTGATG, for which the “relative binding free energy” value worked out at 0.13 kcal/mol. Next, TACGTCACGTGATTTG: 0.11 kcal/mol.

On to GGGAACACGTGACGGT, for which the “relative binding free energy” value worked out at 0.13 kcal/mol. Next, TATTGCACGTGGAAGG: -0.03 kcal/mol. Consider TTTTACACGTGGTGCG, for which the “relative binding free energy” value is 0.11 kcal/mol. Next, CAGGGCACGTGTTGCG: -0.21 kcal/mol; TGGTCCACGTGTATGT: -0.01 kcal/mol. With TTGCTCACGTGTGGAG, the “relative binding free energy” value worked out at 0.23 kcal/mol. Next, CATGTCACGTGTTGAT: -0.02 kcal/mol; TTAGACACGTGCTTTT: 0.02 kcal/mol; GACGGCACGTGGGAGG: -0.07 kcal/mol.

For the sequence GCGGTCACGTGCTTGG, the “relative binding free energy” value worked out at 0.06 kcal/mol.

Regarding GATTACACGTGGTTGG, the “relative binding free energy” value was 0.18 kcal/mol. Take AGGGACACGTGAATTT: the “relative binding free energy” value was 0.16 kcal/mol.

Take GGTTTCACGTGAGGAG: the “relative binding free energy” value stood at 0.49 kcal/mol. Consider TGTGGCACGTGAGAGG, for which the “relative binding free energy” value was determined as 0.21 kcal/mol. Next, CAGTGCACGTGTATTG: -0.01 kcal/mol; GGGATCACGTGCATGT: 0.24 kcal/mol; ATGGGCACGTGGAATT: 0.11 kcal/mol.

For ATTTTCACGTGAGTGA, the “relative binding free energy” value was determined as 0.31 kcal/mol. On to TTCGGCACGTGGCGTT, for which the “relative binding free energy” value was -0.22 kcal/mol. Next, TATCTCACGTGCTTTT: 0.21 kcal/mol; CTGTTCACGTGGTGTA: 0.2 kcal/mol; AATCACACGTGGTTGT: 0.13 kcal/mol. Regarding TGTGGCACGTGTACTA, the “relative binding free energy” value is -0.11 kcal/mol. On to CGTGGCACGTGGAAGG, for which the “relative binding free energy” value amounted to 0 kcal/mol. Consider CTTATCACGTGAGTGT, for which the “relative binding free energy” value stood at 0.33 kcal/mol. Consider CGGGGCACGTGCTGGA, for which the “relative binding free energy” value is -0.18 kcal/mol. Next, GTAGACACGTGTAGGG: -0.03 kcal/mol. GGGAGCACGTGTGATC: the “relative binding free energy” value came out at 0.07 kcal/mol. Next, TGGGACACGTGAAAGG: 0.32 kcal/mol.

For GGCGGCACGTGTGAAG, the “relative binding free energy” value amounted to 0.13 kcal/mol. Consider TTCTTCACGTGATTAT, for which the “relative binding free energy” value came out at 0.3 kcal/mol.

For the sequence GGGTGCACGTGTAAAG, the “relative binding free energy” value worked out at 0.06 kcal/mol. With CACGTCACGTGGGGAT, the “relative binding free energy” value worked out at 0.02 kcal/mol. Regarding ATACACACGTGTGTTG, the “relative binding free energy” value was -0.1 kcal/mol. Next, CGAGACACGTGAGTGT: 0.23 kcal/mol; AGGTACACGTGAGGTG: 0.23 kcal/mol; GGAGACACGTGTGATG: -0.08 kcal/mol. For GTGTGCACGTGTCATA, the “relative binding free energy” value was -0.03 kcal/mol. Next, TATTTCACGTGTCGAA: 0.27 kcal/mol.

CTGTTCACGTGATTGA: the “relative binding free energy” value came out at 0.29 kcal/mol.

Take TTGTCCACGTGGCAGT: the “relative binding free energy” value is -0.04 kcal/mol. With TTACTCACGTGGTTGA, the “relative binding free energy” value was determined as 0.24 kcal/mol. Take TGTGGCACGTGAACGG: the “relative binding free energy” value turned out to be 0.14 kcal/mol.

In the case of ATATTCACGTGAGCAT, the “relative binding free energy” value is 0.46 kcal/mol. With GTGGGCACGTGGCTTA, the “relative binding free energy” value was -0.16 kcal/mol. In the case of ATGGACACGTGTTCGT, the “relative binding free energy” value was 0.07 kcal/mol. Next, GGTAACACGTGAGTTG: 0.2 kcal/mol. AAATCCACGTGGGTGG: the “relative binding free energy” value was -0.14 kcal/mol. Take AGTAGCACGTGATAGG: the “relative binding free energy” value is -0.13 kcal/mol.

In the case of GCACGCACGTGTGGGT, the “relative binding free energy” value is -0.01 kcal/mol. Turning to CGTTGCACGTGTCTTG, the “relative binding free energy” value came to 0.02 kcal/mol.
